In US20260232829A1 (CYTOSPIRE THERAPEUTICS, published 2026):

T1: Human IL-15R beta/CD122 Protein, His Tag (Acro Biosystems CD2-H5221) (human, UniProt P14784 27-239)
T1 construct: Bought recombinant protein with a His tag; also called Human IL-15Rβ protein; IL-15 receptor beta-His
T1 sequence (looked up): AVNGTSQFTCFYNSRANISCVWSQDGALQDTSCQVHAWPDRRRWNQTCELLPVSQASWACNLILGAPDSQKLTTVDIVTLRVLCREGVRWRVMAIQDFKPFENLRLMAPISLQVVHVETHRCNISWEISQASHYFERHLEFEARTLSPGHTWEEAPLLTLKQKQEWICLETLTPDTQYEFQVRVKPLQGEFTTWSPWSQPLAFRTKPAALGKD

T2: Human his-tagged NKG2D/CD314 (Acro Biosystems, NKD-H5245) (human, UniProt P26718 78-216, limits assumed)
T2 construct: Bought recombinant protein with a His tag; also called Human NKG2D-His protein; NKG2D-His
T2 sequence (looked up): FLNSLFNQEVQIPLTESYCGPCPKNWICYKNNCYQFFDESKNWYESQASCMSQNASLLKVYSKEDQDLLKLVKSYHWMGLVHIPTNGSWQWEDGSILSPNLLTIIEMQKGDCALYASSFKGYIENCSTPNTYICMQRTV

B1: CYTB15 (other)
heavy: EIQLLESGGGLVQPGGSLRLSCAVSGFSITTTGYHWNWVRQAPGKGLEWVGYIYSSGSTSYNPSLKSRFTISRDTSKNTFYLQMNSLRAEDTAVYYCARGDWHYFDYWGQGTMVTVSS[human IgG1 constant region omitted here]GGSITCPPPMSVEHADIWVKSYSLYSRERYICNSGFKRKAGTSSLTECVLNKATNVAHWTTPSLKCIRGGGGSGGGSGGGGS[about 120 residues omitted here]
light: DSVTTQSPLSLPVTLGQPASISCSGEKLSDKYVHWYQQRPGQSPRMLIYENDRRPSGVPDRFSGSNSGNDATLKISRVEAEDVGVYFCQFWDSTNSAVFGGGTKVEIKRTVAAPSVFIFPPSDEQLKSGTASVVCLLNNFYPREAKVQWKVDNALQSGNSQESVTEQDSKDSTYSLSSTLTLSKADYEKHKVYACEVTHQGLSSPVTKSFNRGEC
notes: Immunocytokine, Format A: anti-NKp30 IgG1 (H12/L12) with sushi-IL-15 at the C-terminus of each heavy chain
B2: CYTB16 (other)
heavy: QVQLQQSGPELVKPGASVKMSCKASGYTFTDYVINWGKQRSGQGLEWIGEIYPGSGTNYYNEKFKAKATLTADKSSNIAYMQLSSLTSEDSAVYFCARRGRYGLYAMDYWGQGTSVTVSS[human IgG1 constant region omitted here]GGSITCPPPMSVEHADIWVKSYSLYSRERYICNSGFKRKAGTSSLTECVLNKATNVAHWTTPSLKCIRGGGGSGGGSGGGGS[about 120 residues omitted here]
light: DIQMTQTTSSLSASLGDRVTISCRASQDISNYLNWYQQKPDGTVKLLIYYTSRLHSGVPSRFSGSGSGTDYSLTINNLEQEDIATYFCQQGNTRPWTFGGGTKLEIKRTVAAPSVFIFPPSDEQLKSGTASVVCLLNNFYPREAKVQWKVDNALQSGNSQESVTEQDSKDSTYSLSSTLTLSKADYEKHKVYACEVTHQGLSSPVTKSFNRGEC
notes: Immunocytokine, Format A: anti-NKp46 IgG1 (H13/L13) with sushi-IL-15 at the C-terminus of each heavy chain; also called CYT16
B3: CYTB27 (other)
chain: QVQLVESGGGLVKPGGSLRLSCAASGFTFSSYGMHWVRQAPGKGLEWVAFIRYDGSNKYYADSVKGRFTISRDNSKNTLYLQMNSLRAEDTAVYYCAKDRGLGDGTYFDYWGQGTTVTVSSGGGGSGGGGSGGGGSGGGGSQSALTQPASVSGSPGQSITISCSGSSSNIGNNAVNWYQQLPGKAPKLLIYYDDLLPSGVSDRFSGSKSGTSAFLAISGLQSEDEADYYCAAWDDSLNGPVFGGGTKLTVLGGSSGSSGSSHHHHHHHHGGSSGSSGSS[about 120 residues omitted here]
notes: Comparator, Format F: single chain, monovalent for NKG2D and IL-15 receptor beta

How the values were obtained:
[1] = target: T1, Human IL-15R beta/CD122 Protein, His …; assay: SPR (Biacore), molecule captured on anti-human IgG Fc chip, antigen as analyte, 1:1 Langmuir fit
Experimental: In brief, the test molecules were first immobilized on a goat anti-human IgG (Fc specific) antibody plated on a Biacore CM5 Series S sensor chip (CFJB1172, Cytiva Cat No. 29149603) by injection at 5 nM at flow rate 30 ul/min. […] The quality of the fits was assessed by visual inspection.

[2] = target: T2, Human his-tagged NKG2D/CD314 (Acro …); assay: SPR avidity format, antigen immobilised on CM5 chip, test molecule injected as analyte
Text: (§1) In order explore avidity binding effects (rather than affinity), a different assay orientation was employed. Specifically, the recombinant target human antigens (NKG2D-His or IL-15 receptor beta-His antigens, see Example 5) were immobilized on CM5 Series S sensor chips (Cytiva, catalogue number 29149603). […] Irrelevant mAbs were employed to determine and subtract background. As previously (Example 5), standard regeneration solutions and buffers were employed. To determine and compare avidity effects, test molecules were the injected in stepwise serial dilutions and sensogram responses generated.

[3] = target: T1, Human IL-15R beta/CD122 Protein, His …; assay: SPR avidity format, antigen immobilised on CM5 chip, test molecule injected as analyte; avidity format of Table 6 (Example 6)
Text: as §1

Row | Binder | Kd [1] [nM] | Kd [2] [nM] | Kd [3] [nM]
1 | B1 | 3.9 |  | 
2 | B2 | 2.7 |  | 
3 | B3 |  | 4.5 | 86.7
